The campaign covered roughly 310,000 compounds. About 2,200 (0.71%) showed an effect of 50% or more. Effects have a minus sign here. This is one part of the list.
Biological target: human ether-à-go-go-related gene (hERG) potassium channel (human, UniProt Q12809)
Experiment: primary screen, population patch clamp on CHO cells stably expressing hERG

Chain of human ether-à-go-go-related gene (hERG) potassium channel (Q12809 whole entry, looked up): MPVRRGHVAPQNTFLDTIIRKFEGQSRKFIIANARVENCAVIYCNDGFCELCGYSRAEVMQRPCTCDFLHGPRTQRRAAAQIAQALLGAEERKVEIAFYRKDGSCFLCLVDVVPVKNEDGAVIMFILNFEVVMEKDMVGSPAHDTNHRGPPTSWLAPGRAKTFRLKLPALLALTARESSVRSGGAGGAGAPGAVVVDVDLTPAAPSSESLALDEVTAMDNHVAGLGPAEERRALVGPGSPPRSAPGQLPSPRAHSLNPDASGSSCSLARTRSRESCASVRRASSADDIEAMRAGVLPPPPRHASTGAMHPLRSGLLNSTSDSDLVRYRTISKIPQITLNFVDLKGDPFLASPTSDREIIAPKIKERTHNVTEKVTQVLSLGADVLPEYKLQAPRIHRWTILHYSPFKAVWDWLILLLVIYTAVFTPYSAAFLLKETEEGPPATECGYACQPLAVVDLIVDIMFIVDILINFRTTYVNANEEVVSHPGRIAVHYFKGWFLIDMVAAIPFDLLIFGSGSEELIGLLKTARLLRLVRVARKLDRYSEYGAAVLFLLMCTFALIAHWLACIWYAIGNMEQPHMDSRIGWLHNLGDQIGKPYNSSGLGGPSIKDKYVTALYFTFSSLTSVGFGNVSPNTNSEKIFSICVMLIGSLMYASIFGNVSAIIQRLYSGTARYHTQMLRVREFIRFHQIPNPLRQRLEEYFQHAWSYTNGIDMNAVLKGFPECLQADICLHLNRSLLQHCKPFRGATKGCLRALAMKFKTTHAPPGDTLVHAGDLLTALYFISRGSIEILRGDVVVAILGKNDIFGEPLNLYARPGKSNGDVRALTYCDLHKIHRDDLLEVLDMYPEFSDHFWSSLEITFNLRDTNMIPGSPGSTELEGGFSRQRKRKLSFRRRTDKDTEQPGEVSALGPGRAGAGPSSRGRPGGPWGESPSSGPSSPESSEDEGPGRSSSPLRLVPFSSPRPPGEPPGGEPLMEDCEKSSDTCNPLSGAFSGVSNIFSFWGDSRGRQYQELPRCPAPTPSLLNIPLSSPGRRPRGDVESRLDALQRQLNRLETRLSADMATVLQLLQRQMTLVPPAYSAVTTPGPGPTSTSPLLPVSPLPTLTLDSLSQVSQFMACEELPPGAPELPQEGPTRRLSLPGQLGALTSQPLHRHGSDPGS

Compound | hERG current change (%, negative = inhibition) at 1uM
CCOC(=O)Cc1n[nH]c(=O)c2ccccc12 | 10.9%
CCOC(=O)N1CCC(NC(=O)C2CCCN(C(=O)c3cc4sccc4n3C)C2)CC1 (stereo not shown) | 1.81%
COC(=O)C1=C(c2ccccc2)C[C@@H]2CC[C@H]1N2C(=O)N1CCOCC1 | 1.67%
Cn1c(=O)[nH]c(=O)c2c1nc(CN1CCOCC1)n2CCCc1ccccc1 | 0.33%
Cc1ccc(NC(=O)CN2CCc3ccccc3C2)cc1 | -13.5%
CN1CCN(c2nc(-c3cccc([N+](=O)[O-])c3)nc3ccccc23)CC1 | 8.65%
COc1cccc(/C=N/Nc2nnc(C)n2N)c1O.Cl | 10%
CCOc1ccc(OCC)c(NC(=O)C2CCN(c3nn4c(=O)cc(C)nc4s3)CC2)c1 | 1.92%
CCOc1ccc(NC(=O)Nc2cc(C(C)C)c(O)cc2C)cc1 | 7.04%
Cc1nnc(NC(=O)c2cc(S(=O)(=O)N(C)C)ccc2N2CCCC2)s1 | 14.6%
C/C(=N\NC(=O)c1cccc(S(=O)(=O)Nc2ccccc2Cl)c1)c1ccc(-n2ccnc2)cc1 | 6.75%
Cc1ccc(NC(=S)NC(=O)C2CCC2)cc1C | 3.37%
Cc1c(CCOC(=O)C23CC4CC(CC(C)(C4)C2)C3)sc[n+]1CC(=O)c1ccccc1.[Br-] | 2.92%
O=C(Nc1cnn(Cc2ccccc2)c1)c1nc2ncccn2n1 | 2.52%
COc1ccc(S(=O)(=O)Nc2ccc(S(=O)(=O)N3CCCCC3)cc2)cc1C | 3.1%
CCc1c(C)nc(N2CCN(c3ccccc3F)CC2)[nH]c1=O | 13.6%
Cc1ccc(Nc2c(-c3ccccn3)nc3cc(C)ccn23)cc1 | -4.1%
CCOC(=O)Cc1csc(NC(=O)COc2ccccc2OC)n1 | 1.79%
CC1(C)CC(=O)C2=C(C1)Nc1ccccc1[S@]2=O | 8.31%
O=C(NC(=S)Nc1ccc(Cc2ccncc2)cc1)c1ccccc1 | 6.43%
O=C(C1CCC(=O)N1Cc1cccs1)N1CCOCC1 (stereo not shown) | 9.17%
CCOC(=O)C1CCCN(C(=O)c2cn(CC(C)C)c(=O)c3cc(OC)c(OC)cc23)C1 (stereo not shown) | 7.33%

Compound | hERG current change (%, negative = inhibition) at 1uM
Cc1cccc(Cn2c(=O)c3c(nc4n3CCCN4Cc3ccccc3)n(C)c2=O)c1 | 11.6%
Nc1c(-c2ccccc2)sc2ccc3ccccc3[n+]12.O=S(=O)([O-])c1ccccc1 | -15.6%
Cc1nc2cc(N=NC3=C(O)CCCC3=O)ccc2s1 | 10.4%
O=C(Nc1nnc(C2CC2)s1)c1ccncc1 | 7.22%
COc1ccc(CC(C)Nc2cccc(SC)c2)cc1 (stereo not shown) | 17%
Cc1cc(NCCCn2ccnc2)n2ncc(-c3ccccc3)c2n1 | -34.9%
COC(=O)C1=C(C)N(CCCC(=O)O)C(=O)NC1c1ccc(C#N)cc1 (stereo not shown) | -0.0268%
N#C/C(=C\c1cccnc1)C(=O)Nc1ccc(O)cc1F | 8.13%
CCn1c(Cn2nnc(-c3ccccc3)n2)nnc1SCC(=O)Nc1ccccc1 | 0.98%
CCc1ccc(NC(=O)C2CC=CCC2C(=O)O)cc1 (stereo not shown) | 7.12%
COC(=O)C1=C(c2ccc(F)cc2OCc2ccccc2)C[C@@H]2CC[C@H]1N2C(=O)NCCN1CCOCC1 | 13.3%
c1ccc(-n2nnnc2SCc2cccc(CSc3nnnn3-c3ccccc3)n2)cc1 | -3.56%
Cc1cc(C)c(S(=O)(=O)N2CCCOC2CNC(=O)C(=O)NCCCn2ccnc2)c(C)c1 (stereo not shown) | 11.3%
COc1cc(=O)n(C)c2c(OCC(O)C(C)(C)O)cccc12 (stereo not shown) | 16.6%
CCOC(=O)NC(=O)CN1C(=O)NC(C)(c2ccccc2)C1=O (stereo not shown) | 8.01%
COc1ccc(C(=O)ON=C2c3ccccc3-c3ccccc32)cc1OC | 11.9%
CCCc1cc(=O)oc2cc(OCC(=O)Nc3ccc4c(c3)OCCO4)ccc12 | 9.35%
COc1ccc(/C=C/C(=O)Nc2nc(C)c(C(=O)N(C)C)s2)cc1 | 3.54%
CN(CCO)S(=O)(=O)c1ccc2c(c1)C(=NN)c1cc(S(=O)(=O)N(C)CCO)ccc1-2 | 11%
CCOC(CNC(=O)CCc1c(C)nc2ncnn2c1C)OCC | 8.89%
O=c1c(N2CCOCC2)nsn1Cc1ccccc1 | 5.46%

— article PMC4336329 (PLoS ONE, 2015)
